From PubChem BioAssay AID588855 (National Center for Advancing Translational Sciences (NCATS), 2011)
“And” between values parts separate entries of the source, which are not always exact repeats. Equal entries are not always repeated. Hit rate of the full screen: of about 410,000 compounds, about 5,000 (1.2%) were called active. The shares of active, inactive and inconclusive entries below differ from those in the screen. Calls follow the shape of the dose curve; as a rule, active = well fitted inhibition curve with a large enough effect; inconclusive = small, poorly fitted or top-dose-only effect; inactive = no such curve, though single readings can be large or run the other way. Potencies beside an inconclusive call are fits to weak or partial responses and may not hold up.

assay: qHTS for Inhibitors of TGF-b; settings: HepG2 CAGA-GFP TGF-b/SMAD3 reporter, GFP fluorescence, 18 h, TGF-beta stimulated, 500 pg/mL final; series mostly up to 46.1 µM; also: nearly all actives have a fitted effect of over 65% in size
Procedure, shortened: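 Smad-responsive CAGA-GFP expression was quantified in HEPG2 cells exposed to compounds and 500 pg/mL final TGF-beta for 18 h at 37 degrees C; unstimulated wells defined full inhibition.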
Potency is read from the fitted curve at half-maximal effect; tags tell the direction and shape of the fitted curve.

| SMILES | Potency |
| --- | --- |
| O=C(Cn1c(=O)oc2cc(S(=O)(=O)NCc3ccccc3)ccc21)Nc1cccc(F)c1 | inconclusive: 35.5 µM [inhibitor, single point] |
| O=C(N/N=C/c1ccc(F)cc1)c1ccc(Br)cc1 | inactive |
| COc1cc(Cl)c(C)cc1NC(=O)CC1CCCC1 | inactive |
| COC1CCCN(C(=O)c2ccc3nc(Cc4cccc(Cl)c4)oc3c2)C1 (stereo unspecified) | inactive |
| COc1ccc(NS(=O)(=O)c2cc(NC(=O)COc3ccccc3)ccc2N2CCOCC2)cc1 | inactive |
| COCCN(C(=O)COC(=O)/C=C/c1ccc(OC)c(OC)c1)c1c(N)n(Cc2ccccc2)c(=O)[nH]c1=O | inactive |
| Cc1ccccc1Nc1c(-c2c(F)cccc2Cl)nc2ccc(Br)cn12 | inactive |
| Cc1ccc(S(=O)(=O)n2cc(C=O)c3ccccc32)cc1 | inconclusive: 20 µM [inhibitor, single point] |
| Cc1ccc(S(=O)(=O)Nc2ccc(O)c3ncccc23)cc1 | inconclusive: 35.5 µM [inhibitor, single point] |
| Cc1c(C(=O)Nc2cccc(C(F)(F)F)c2)sc2nc[nH]c(=O)c12 | inconclusive: 0.447 µM [inhibitor, full curve] |
| CC(C)C(NC(=O)c1ccco1)C(=O)NCc1ccc(C(=O)O)cc1 (stereo unspecified) | inactive |
| Cc1cc(NC(=O)CSc2nnc(-c3ccccc3)c(-c3ccccc3)n2)no1 | inconclusive: 12.6 µM [inhibitor, partial curve, poor fit] |
| C#CCOCCOCCOCCNc1nc(N2CCN(C(=O)CCCCCCCCCCNC(=O)[C@@H](CCSC)n3cc(CCO)nn3)CC2)nc(N2CCN(C(=O)CCCCCCCCCCNC(=O)[C@H](CCCN=C(N)N)n3cc(C[C@@H](C)CC)nn3)CC2)n1 | inconclusive: 11.2 µM [inhibitor, partial curve, poor fit] |
| COC(=O)c1ccc(C(C(=O)NC2CCCCC2)N(CCc2ccccc2)C(=O)Cc2cccs2)cc1 (stereo unspecified) | inactive |
| CC(=O)N1CCc2cc(S(=O)(=O)NCCC(=O)N3CCc4ccccc4C3)ccc21 | inactive |
| O=C(CSc1nnc(-c2ccccc2)o1)NC(=O)Cc1ccccc1 | inconclusive: 7.08 µM [inhibitor, full curve] |
| CCOC(=O)CNC(=O)Cn1c(C)cc2ccccc2c1=O | inactive |
| Cc1ccc(C(C)C)c(OCc2ccc(C(=O)N/N=C/c3ccc(O)cc3O)cc2)c1 | inconclusive: 22.4 µM [inhibitor, single point] |
| C=CCn1c(SCC(=O)N2CCOCC2)nc2c([nH]c3ccccc32)c1=O | inconclusive: 6.31 µM [inhibitor, partial curve, poor fit] |
| CN(C)CCCNC(=S)NCC(c1ccc(Cl)cc1Cl)c1c[nH]c2ccccc12 (stereo unspecified) | inconclusive: 35.5 µM [inhibitor, single point] |
| O=[N+]([O-])c1cc2c(cc1CN1CCN(c3ccc(F)cc3)CC1)OCO2 | inconclusive: 20 µM [inhibitor, single point] |
| C/C(=N\NC(=S)NC(C)C)c1cccc([N+](=O)[O-])c1 | inconclusive: 5.62 µM [inhibitor, single point] |

| SMILES | Potency |
| --- | --- |
| O=C(OCc1ccccc1)N(CCCCN(CCCNCc1ccccc1)C(=O)OCc1ccccc1)CCCNCc1ccccc1 | active: 5.01 µM |
| Cc1ccc(C)c(S(=O)(=O)N2CCN(Cc3cc4c(cc3O)OCO4)CC2)c1 | inactive |
| CCOC(=O)C1=C(O)/C(=C\c2sccc2C)N=C1C | inconclusive: 6.31 µM [inhibitor, single point] |
| Cc1ccccc1NC(=O)CS(=O)(=O)c1cn(CC(=O)N2CCOCC2)c2ccccc12 | inconclusive: 6.31 µM [inhibitor, single point] |
| COc1ccc(C(=O)/C=C/c2cn(CC(O)CN3CCc4ccccc43)c3ccccc23)cc1OC (stereo unspecified) | inconclusive: 7.08 µM [inhibitor, partial curve] |
| Nc1c(Cl)cc(N=Nc2ccccc2)cc1Cl | inconclusive: 35.5 µM [inhibitor, partial curve, poor fit] |
| CCc1cccc(NC(=O)c2ccc(Cn3c(=O)[nH]c4ccsc4c3=O)cc2)c1 | inactive |
| Cc1ccccc1C(=O)N1CCN(c2ccc(NC(=O)c3ccco3)cc2Cl)CC1 | inconclusive: 20 µM [inhibitor, partial curve, poor fit] |
| COCc1nnc(NC(=O)c2cc(OC)c(OC)c(OC)c2)s1 | inactive |
| CC(=O)N/N=C/c1cc(C(C)(C)C)cc(/C=N/NC(C)=O)c1O | inactive |
| Cn1c(=O)c2c(nc(Br)n2C/C=N/NC(N)=S)n(C)c1=O | inconclusive: 22.4 µM [inhibitor, single point] |
| CC(C)N(C(=O)[C@H]1C[C@H](CC(=O)NCCc2ccccn2)C(=O)N2CCc3c([nH]c4cc(-c5ccco5)ccc34)[C@]12C)C(C)C | inconclusive: 10 µM [inhibitor, partial curve, poor fit] |
| N#Cc1ccc(C(=O)Nc2nc3ccccc3[nH]2)cc1 | inactive |
| COC(=O)CCC(=O)NC(=S)Nc1sc(C)c(C)c1C(N)=O | active: 11.2 µM |
| Cc1cn([C@H]2C[C@H](O)[C@@H](CCC(=O)NCC(c3ccccc3)c3ccccc3)O2)c(=O)[nH]c1=O | inconclusive: 5.62 µM [inhibitor, partial curve, poor fit] |
| CC(C)CN1CCN(C(=O)COC(=O)c2ccc(S(C)(=O)=O)c([N+](=O)[O-])c2)CC1 | active: 4.47 µM |
| Cc1ccc(-n2c(SCC(=O)NCc3ccco3)nc3c(sc4ccccc43)c2=O)cc1 | inactive |
| N[C@@H](CO)c1cn([C@@H](Cc2cc3ccccc3[nH]2)C(=O)N2CCNCC2)nn1 | inactive |
| C=CCCN(C1CCCC1)S(=O)(=O)c1ccccc1Br | inconclusive: 22.4 µM [inhibitor, single point] and inconclusive: 25.1 µM [inhibitor, single point] |
| COc1cccc(C(NC(C)=O)c2nc(-c3ccc(C)c(C)c3)cs2)c1 (stereo unspecified) | inconclusive: 35.5 µM [inhibitor, single point] |
| Cc1ccc(Cc2c(-c3ccc(Cl)cc3)nc3c(C)cc(Br)cn23)cc1 | inconclusive: 10 µM [inhibitor, partial curve] |
| COc1ccccc1CNC(=O)COC(=O)c1ccncc1 | inconclusive: 2.82 µM [inhibitor, single point] |

| SMILES | Potency |
| --- | --- |
| Nc1ccc(C(=O)N2CCN(S(=O)(=O)c3ccc(Br)cc3)CC2)cc1[N+](=O)[O-] | inactive |
| O=C(Nc1ccccc1C(=O)OCc1cc(=O)n2c3c(sc2n1)CCCC3)c1ccc(F)cc1 | inconclusive: 4.47 µM [inhibitor, full curve] |
| COCCNC(=O)C1CCCN(C(=O)c2ccc(F)c(C)c2)CC1 (stereo unspecified) | inactive |
| CC(NCC(=O)Nc1cc(Cl)cc(Cl)c1)c1ccccc1 (stereo unspecified) | inconclusive: 35.5 µM [inhibitor, single point] |
| CN(C)c1cccc(C(=O)OC(C(=O)Nc2ccc(Cl)cc2C(F)(F)F)c2ccccc2)c1 (stereo unspecified) | inconclusive: 3.98 µM [inhibitor, single point] |
| CCc1nc2c(OCc3cccc(Cl)c3)cccn2c1N(C)C(=O)Nc1ccccc1OC | inconclusive: 17.8 µM [inhibitor, single point] |
| O=C1OCC2=C1C(c1ccccc1)CC(=O)N2c1ccccc1 (stereo unspecified) | inactive |
| CCOC(=O)c1cnc(Nc2nc3ccccc3o2)nc1CN1CCN(C)CC1 | inconclusive: 14.1 µM [inhibitor, partial curve, poor fit] |
| Cc1ccc(-c2nc(S(=O)(=O)c3ccccc3)c(N3CCN(c4ccccc4)CC3)o2)cc1 | inconclusive: 20 µM [inhibitor, single point] |
| CC(OC(=O)c1ccco1)C(=O)Nc1ncc(Cl)cc1Cl (stereo unspecified) | inconclusive: 1 µM [inhibitor, full curve, poor fit] |
| CCCC(=O)NNc1c2ccccc2nc2ccccc12 | inactive |
| CC1CCCC(NC(=O)CNC(=S)N(Cc2ccccc2)Cc2cccs2)C1C (stereo unspecified) | inconclusive: 35.5 µM [inhibitor, single point] |
| O=C(CCCCl)NC(=S)Nc1cc(C(F)(F)F)ccc1N1CCOCC1 | inconclusive: 22.4 µM [inhibitor, single point] |
| CSc1nc2nccc(/C=C\c3ccccc3)n2n1 | inconclusive: 20 µM [inhibitor, single point] |
| Cc1cccc(C)c1-n1c(C)nn(Cc2ccc([N+](=O)[O-])cc2)c1=O | inconclusive: 6.31 µM [inhibitor, single point] |
| CCN1C(=O)[C@@H]2[C@H](C1=O)[C@@H]1C[C@H]3C(=O)N(CC)C(=O)[C@H]3[C@@H]3C1=C(C(=O)N1C(=O)OC(=NCC4CC4)[C@]31C)[C@@H]2C | inactive |
| Cc1c(NC(=O)CSc2nnnn2Cc2ccccc2)c(=O)n(-c2ccccc2)n1C | inconclusive: 35.5 µM [inhibitor, single point] |
| CN(c1ccc(F)cc1)S(=O)(=O)c1ccc(Cl)c(C(=O)Nc2ccncc2)c1 | inconclusive: 35.5 µM [inhibitor, single point] |
| Cc1ccccc1N1CC(=O)N(c2ccccc2C)CC1=O | inactive |
| CCOC(=O)c1c(-c2ccc(C)o2)csc1NC(=O)CN1CCCCC1 | inconclusive: 28.2 µM [inhibitor, single point] |
| OCCNc1nc(Nc2ccccc2)nc2ccccc12 | inconclusive: 22.4 µM [inhibitor, single point] |
| COc1cccc(C2CC(C(F)(F)F)n3ncc(C(=O)NCc4ccco4)c3N2)c1 (stereo unspecified) | inconclusive: 5.62 µM [inhibitor, single point] |
